Assay results as given in paper PMC4822036, “Rab35 GTPase couples cell division with initiation of epithelial apico-basal polarity and lumen opening” (Nature Communications, 2016).
Results are given in words; binding and its absence hold for the method and conditions named. For part of these data: In cells and extracts the contact can be indirect. Some entries that bind do so weakly or less than the wild type. For part of these data: Tags and fused reporters may be left off the sequences shown. Each block holds one molecule with its values, some of them ahead of it.

The chains behind the UniProt entries cited, without tags or fusion partners. Where a name states a change or a piece, a line headed by the entry shows the natural chain unless it says otherwise. A line that says so, or that is headed by a name, gives the form on record, which may keep a tag or linker. Residues count along the entry.
UniProt Q15286: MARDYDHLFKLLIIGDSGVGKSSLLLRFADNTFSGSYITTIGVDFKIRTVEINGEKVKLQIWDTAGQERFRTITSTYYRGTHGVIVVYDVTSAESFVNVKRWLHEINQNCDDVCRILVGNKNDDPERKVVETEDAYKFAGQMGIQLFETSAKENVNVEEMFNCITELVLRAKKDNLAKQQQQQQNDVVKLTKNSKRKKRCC
LexA-human wild-type Rab35 K173 (aa 1–173): residues 1-173 of Q15286
LexA-human Rab35^Q67L K173 (aa 1–173) (Q15286, form named): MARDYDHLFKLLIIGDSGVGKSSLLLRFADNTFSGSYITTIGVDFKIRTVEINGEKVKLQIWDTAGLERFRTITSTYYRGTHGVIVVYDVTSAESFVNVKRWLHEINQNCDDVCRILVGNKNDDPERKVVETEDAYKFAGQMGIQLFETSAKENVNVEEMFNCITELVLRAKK
LexA-human Rab35^S22N K173 (aa 1–173) (Q15286, form named): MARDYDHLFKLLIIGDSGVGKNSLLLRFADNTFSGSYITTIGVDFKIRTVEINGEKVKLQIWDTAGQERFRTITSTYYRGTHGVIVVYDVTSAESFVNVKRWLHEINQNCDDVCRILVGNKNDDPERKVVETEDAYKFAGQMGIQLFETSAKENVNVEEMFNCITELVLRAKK
UniProt P62491: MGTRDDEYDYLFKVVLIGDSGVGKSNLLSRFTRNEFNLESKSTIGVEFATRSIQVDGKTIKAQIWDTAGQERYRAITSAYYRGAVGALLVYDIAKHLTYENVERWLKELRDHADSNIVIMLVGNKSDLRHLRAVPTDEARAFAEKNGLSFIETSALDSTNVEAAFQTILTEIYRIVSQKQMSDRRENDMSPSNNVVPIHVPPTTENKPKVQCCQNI
LexA-human Rab11^Q70L Y173 (aa 1–173) (P62491, form named): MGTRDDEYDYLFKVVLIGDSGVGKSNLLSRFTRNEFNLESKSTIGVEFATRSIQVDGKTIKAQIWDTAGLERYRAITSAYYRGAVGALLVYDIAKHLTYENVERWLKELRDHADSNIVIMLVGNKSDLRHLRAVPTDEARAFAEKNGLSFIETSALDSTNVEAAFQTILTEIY
UniProt P51159: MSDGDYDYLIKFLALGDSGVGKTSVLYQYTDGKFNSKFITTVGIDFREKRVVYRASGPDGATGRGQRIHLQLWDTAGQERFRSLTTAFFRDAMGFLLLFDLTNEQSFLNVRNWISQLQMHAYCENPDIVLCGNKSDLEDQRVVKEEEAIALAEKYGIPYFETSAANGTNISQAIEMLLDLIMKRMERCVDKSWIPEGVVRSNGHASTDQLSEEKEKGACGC
LexA-human Rab27A^Q78L (aa 1–201) (P51159, form named): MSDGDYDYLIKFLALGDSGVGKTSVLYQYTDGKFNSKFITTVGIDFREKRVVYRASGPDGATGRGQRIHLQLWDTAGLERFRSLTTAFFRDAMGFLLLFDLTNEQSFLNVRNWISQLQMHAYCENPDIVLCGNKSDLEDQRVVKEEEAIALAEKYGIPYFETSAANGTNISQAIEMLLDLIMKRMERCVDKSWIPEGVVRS
UniProt P61006: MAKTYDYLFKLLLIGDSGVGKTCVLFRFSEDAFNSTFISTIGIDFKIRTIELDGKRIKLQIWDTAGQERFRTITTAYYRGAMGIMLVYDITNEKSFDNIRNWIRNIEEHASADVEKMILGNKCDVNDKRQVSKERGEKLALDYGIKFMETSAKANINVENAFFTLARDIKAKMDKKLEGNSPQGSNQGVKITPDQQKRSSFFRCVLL
LexA-human Rab8A^Q67L (aa 1–183) (P61006, form named): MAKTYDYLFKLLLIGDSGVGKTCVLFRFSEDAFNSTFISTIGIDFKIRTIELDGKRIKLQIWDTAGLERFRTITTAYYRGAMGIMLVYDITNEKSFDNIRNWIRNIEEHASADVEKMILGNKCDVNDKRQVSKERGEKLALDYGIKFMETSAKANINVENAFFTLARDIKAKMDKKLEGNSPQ

Columns and labels:
[1] = target: T1, GST–PODXL V496A Y500A (aa 476–551) (rabbit) (UniProt Q28645); assay: pull-down; GST–PODXL tail or GST on glutathione Sepharose 4B beads incubated with 6xHis-Rab proteins exchanged with 1 mM GDP or 200 μM GTPγS; 25 mM Tris pH 7.5, 50 mM NaCl, 10 mM MgCl2, 0.1% Triton X-100, 0.2% BSA; western blot with anti-6xHis; both purified
T1 sequence: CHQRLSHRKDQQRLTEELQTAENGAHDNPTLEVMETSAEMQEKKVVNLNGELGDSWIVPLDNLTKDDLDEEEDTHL

[2] = target: LexA-human wild-type Rab35 K173 (aa 1–173) (human) (UniProt Q15286); assay: two-hybrid; S. cerevisiae L40 reporter strain co-transformed with pGAD-rabbit PODXL (aa 476–551) or pGAD alone and pLex-Rab constructs; growth on medium without histidine indicates an interaction
[3] = target: LexA-human Rab35^Q67L K173 (aa 1–173) (human) (UniProt Q15286); assay: as above
[4] = target: LexA-human Rab35^S22N K173 (aa 1–173) (human) (UniProt Q15286); assay: as above
[5] = target: LexA-human Rab11^Q70L Y173 (aa 1–173) (human) (UniProt P62491); assay: as above
[6] = target: T2, LexA-human Rab6A^Q72L (aa 1–173) (human) (UniProt P20340); assay: as above
T2 sequence: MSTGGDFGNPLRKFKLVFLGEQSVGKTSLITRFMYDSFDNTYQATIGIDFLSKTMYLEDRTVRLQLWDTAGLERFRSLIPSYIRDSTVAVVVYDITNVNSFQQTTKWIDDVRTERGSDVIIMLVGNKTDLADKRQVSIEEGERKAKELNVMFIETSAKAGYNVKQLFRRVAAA

[7] = target: LexA-human Rab27A^Q78L (aa 1–201) (human) (UniProt P51159); assay: as above
[8] = target: LexA-human Rab8A^Q67L (aa 1–183) (human) (UniProt P61006); assay: as above
[9] = target: 3xFlag-tagged Rab27A^Q78L (human) (UniProt P51159); assay: co-IP; MDCK cells transfected 24 h with 3xFlag-tagged Rab proteins; lysis in 25 mM Tris pH 7.5, 150 mM NaCl, 10 mM MgCl2, 0.1% Triton X-100; anti-Flag M2 affinity gel 2 h; endogenous PODXL detected by western blot
[10] = target: 3xFlag-tagged Rab35^Q67L (human) (UniProt Q15286); assay: as above
[11] = target: 3xFlag-tagged Rab6A^Q72L (human) (UniProt P20340); assay: as above
[12] = target: 3xFlag-tagged Rab11A^Q70L (not stated (human or canine cDNA cloned)) (UniProt P62491); assay: as above
[13] = target: 3xFlag-tagged Rab8A^Q67L (human) (UniProt P61006); assay: as above
[14] = target: 3xFlag-tagged Rab35^S22N (human) (UniProt Q15286); assay: as above
[15] = target: 3xFlag-tagged Rab35^WT (human) (UniProt Q15286); assay: as above

binding [1]: no binding
Molecule: 6xHis–Rab35^WT full-length (from UniProt Q15286 1-201)

binding [2]: binds
binding [3]: binds
binding [4]: no binding
binding [5]: no binding
binding [6]: no binding
binding [7]: no binding
binding [8]: no binding
B1: GST–PODXL WT (aa 476–551) (domain or fragment, rabbit, UniProt Q28645 476-551, looked up)
chain: CHQRLSHRKDQQRLTEELQTVENGYHDNPTLEVMETSAEMQEKKVVNLNGELGDSWIVPLDNLTKDDLDEEEDTHL
notes: The species is not repeated for the GST construct; source: E. coli BL21 pLysS, purified (glutathione Sepharose 4B)

binding [9]: no binding
binding [10]: binds
binding [11]: no binding
binding [12]: no binding
binding [13]: no binding
binding [14]: no binding
binding [15]: binds
B2: endogenous PODXL (MDCK cells) (protein, UniProt Q52S86 23-571)
chain: HDGTIIAATSPTSGQPSTELPGGKGLITTAKTIQNTDLAITGEKVMSATVSKGPLPGSSNSVSMTLAPTQKNTVIAPDQDEKVSTNPTIATSDSKGIPDLNKSILPSATNSMKPDTPVTQTAGPGAQGNPGTTVSHMTSENTEQTTSQPPPQVKPSSITPALTSIITPTSPRQPSANSTTLKPPESSSESPDKSHTASSSLGTKVVPSSSLYGTSPTRTSSVTFWGGPQSSSGTPPVPAPTPRPAATSSSTPGISSVPGTTSLPSETESLESPSSESPSQPPKLRPTGPPSSGSSGPAASLPDEGPRSSSTQRAATAPRAPSVPSPTSAQGDDRIKCESPGRLTDKMLLLNLTRSGLCAGNNSDDKLITLLCRAAKATFNPAQDQCHIRLVPIQDTQAVAIKEITVQTNLLPRDVYELLKDKWDELKEVGVSNMKLGDQGPPEETEDRFSMPLIITIVCMASFLLLVAALYGCCHQRLSQRKDQQRLTEELQTVENGYHDNPTLEVMETSSEMQEKKVVNLNGELGDSWIVPLDNLAKDDLDEEEDTHL
